Assays:
His-HER3 = molecular target: T1, His-HER3 (Homo sapiens, UniProt P21860); assay: Binding kinetics by Biacore (SPR); settings: antibody as ligand, analyte His-HER3, Biacore T200
T1 construct: His
Procedure: Affinity assay by surface plasmon resonance (SPR): antibody kinetics and affinity were determined using Biacore T200. Briefly, the recombinant human HER3 antibody was immobilized on a protein A chip (GE, Cat. 29-1275-5). The antigen concentration, from 50 nM to a final concentration of 0.78125 nM, was generated by 2-fold serial dilution, and affinity and kinetics were determined through the chip.
The binding affinity of humanized 3F8 (hu3F8) and chimeric 3F8. Binding kinetics of 3 humanized 3F8 clones and chimeric 3F8 were determined by Biacore. Three humanized 3F8 clones (clone 1, clone 2 and clone 3) had different heavy chains and one identical light chain. Clone 1, clone 2, and clone 3 corresponded to hu3F8-1, hu3F8-2, and hu3F8-3, respectively.
All data listed in Table 6 were processed using Biacore T200 evaluation software version 3.1.

HER3 [1] = molecular target: T2, HER3 (Homo sapiens, UniProt P21860); assay: ELISA binding affinity after incubation at 40° C. (heat stress)
T2 construct: human Fc (huFc)
Procedure: (§1) ELISA assay: human HER2-ex-huFc, human HER3-huFc, and human EGFR-his were diluted to 2 μg/mL and 50 μL/well in a 96-well plate and incubated at 4° C. overnight. The plate was washed with 0.5×PBST, then incubated with 100 μL of a blocking buffer (PBS+3% BSA) at 37° C. for 2 h, and washed with 0.5×PBST. The 3F8 antibody was diluted with the blocking buffer in a 1:3 serial gradient, added at 50 μL/well, incubated at 37° C. for 40-50 min, and then washed with 0.5×PBST. Goat anti-mouse IgG-HRP (Southern Biotech, 1030-05) was diluted at 1:20000 with the blocking buffer, added at 50 μL/well, incubated in the dark for 30 min, and then washed with 0.5×PBST. Prior to assay, 50 μL of luminol buffer A+B was added to each well in a 1:1 mix.
(§2) Antibody stability test: the purified antibody at 5 mg/mL was stored at 4° C. as regular practice, incubated at 40° C. for 7 days and 14 days for heat stability evaluation, transferred to a glycine solution at pH 3.5 for regeneration, and stored for 2, 4 and 6 h for acid stability evaluation, or subjected to repeated freeze-thaw treatments for 4 or 6 cycles for freeze-thaw stability evaluation. Aggregation was measured by SEC-HPLC, and binding affinity was determined by ELISA.
The three clones of hu3F8 were incubated at 40° C. for different times and then subjected to ELISA to determine the binding affinities. The chimeric antibody was subjected to parallel assay.
EC50 assay of the three clones of hu3F8 incubated at 40° C. for different times. The three humanized 3F8 antibody clones were incubated in normal saline at 40° C. for 7 or 14 days, and the binding affinities after heat stress test were determined by ELISA. The chimeric antibody 3F8 was subjected to parallel assay.

HER3 [2] = molecular target: T2, HER3; assay: ELISA binding affinity after incubation at pH 3.5 (acid stress)
Procedure: as §1, §2
Three clones of hu3F8 were incubated at pH 3.5 for 0, 2, 4 and 6 h, and then subjected to ELISA to measure the binding affinities.
EC50 assay of the three clones of hu3F8 after 0, 2, 4, and 6 h of incubation at pH 3.5. EC50 was determined by ELISA.

HER3 [3] = molecular target: T2, HER3; assay: ELISA binding affinity after repeated freeze-thaw
Procedure: as §1, §2
Three clones of hu3F8 were freeze-thawed for 3 or 5 cycles, and then subjected to ELISA to measure the binding affinities. The chimeric antibody was subjected to parallel assay.

[4] = Aggregation by SEC-HPLC after stress test; assay type: physicochemical
Procedure: as §2
Aggregations of 3 clones of hu3F8 after stability test and their aggregation evaluations on storage at 4° C. Aggregations of the three hu3F8 antibodies after acid treatment, repeated freeze-thaw and incubation at 40° C. were determined by SEC-HPLC and compared to each of the antibodies stored at 4° C. All the clones retained more than 95% of monomer after stress test, indicating little tendency to aggregate.

[5] = Antibody stored at 4° C., SEC-HPLC

Row | ka (His-HER3) [M⁻¹ s⁻¹] | kd (His-HER3) [s⁻¹] | EC50 after incubation at 40° C. (HER3 [1]; day 0) [µg/mL] | EC50 after incubation at 40° C. (HER3 [1]; day 7) [µg/mL] | EC50 after incubation at 40° C. (HER3 [1]; day 14) [µg/mL] | EC50 after incubation at pH 3.5 (HER3 [2]; incubation time 0 hr) [ng/mL] | EC50 after incubation at pH 3.5 (HER3 [2]; incubation time 2 hr) [ng/mL] | EC50 after incubation at pH 3.5 (HER3 [2]; incubation time 4 hr) [ng/mL] | EC50 after incubation at pH 3.5 (HER3 [2]; incubation time 6 hr) [ng/mL] | EC50 after freeze-thaw stress (HER3 [3]; 0 freeze-thaw cycles) [µg/mL] | EC50 after freeze-thaw stress (HER3 [3]; 3 freeze-thaw cycles) [µg/mL] | EC50 after freeze-thaw stress (HER3 [3]; 5 freeze-thaw cycles) [µg/mL] | Molecule | Dimer [4, 5] [%] | Monomer [4, 5] [%] | Dimer ([4]; Day 7 at 40° C.) [%] | Monomer ([4]; Day 7 at 40° C.) [%] | Dimer ([4]; Day 14 at 40° C.) [%] | Monomer ([4]; Day 14 at 40° C.) [%] | Dimer ([4]; Freeze-thaw for 3 cycles) [%] | Monomer ([4]; Freeze-thaw for 3 cycles) [%] | other results
1 | 666000 | 0.000328 | 0.0454 | 0.04809 | 0.05203 | 45.04 | 48.31 | 44.54 | 41.18 | 0.04246 | 0.04666 | 0.04379 | Clone 2: humanized 3F8; heavy chain SEQ ID NO: 13, light chain SEQ ID NO: 12 (antibody) heavy: QVQLQESGPGLVKPSETLSLTCTVSGYSITSAYYWNWIRQPFGKGLEWMGYISYDGRNNFNPSLKNRVTISRDTSKNQFSLKLSSVTAADTAVYYCARDGDYDYFDYWGQGTTVTVSS[human IgG1 constant region left out] light: DIQMTQSPSSLSASVGDRVTITCRASQDISNYLNWYQQKPGKAPKLLIYYTSILHSGVPSRFSGSGSGTDYTFTISSLQPEDIATYFCQQGDTLPPTFGGGTKLEIKRTVAAPSVFIFPPSDEQLKSGTASVVCLLNNFYPREAKVQWKVDNALQSGNSQESVTEQDSKDSTYSLSSTLTLSKADYEKHKVYACEVTHQGLSSPVTKSFNRGEC | 3.16 | 96.67 | 3.03 | 96.94 | 3.39 | 96.44 | 3.22 | 96.65 | Tetramer [4, 5]: 0.17%; Tetramer ([4]; Day 7 at 40° C.): 0.03%; Tetramer ([4]; Day 14 at 40° C.): 0.17%; Tetramer ([4]; Freeze-thaw for 3 cycles): 0.13%; Dimer ([4]; Freeze-thaw for 5 cycles): 3.44%; Monomer ([4]; Freeze-thaw for 5 cycles): 96.31%; Tetramer ([4]; Freeze-thaw for 5 cycles): 0.25%; Dimer ([4]; pH 3.5 for 2 h): 2.99%; Monomer ([4]; pH 3.5 for 2 h): 96.98%; Tetramer ([4]; pH 3.5 for 2 h): 0.04%; Dimer ([4]; pH 3.5 for 4 h): 3.27%; Monomer ([4]; pH 3.5 for 4 h): 96.52%; Tetramer ([4]; pH 3.5 for 4 h): 0.22%; Dimer ([4]; pH 3.5 for 6 h): 3.27%; Monomer ([4]; pH 3.5 for 6 h): 96.57%; Tetramer ([4]; pH 3.5 for 6 h): 0.16%
2 | 644000 | 0.000348 | 0.04244 | 0.04696 | 0.04125 | 38.71 | 41.71 | 39.45 | 38.06 | 0.04225 | 0.03742 | 0.03363 | Clone 3: humanized 3F8; heavy chain SEQ ID NO: 14, light chain SEQ ID NO: 12 (antibody) heavy: QVQLQESGPGLVKPSETLSLTCTVSGYSITSAYYWNWIRQPFGKGLEWMGYISYDGRNNFNPSLKNRVSISRDTSKNQFSLKLSSVTAADTATYYCARDGDYDYFDYWGQGTTVTVSS[human IgG1 constant region left out] light: DIQMTQSPSSLSASVGDRVTITCRASQDISNYLNWYQQKPGKAPKLLIYYTSILHSGVPSRFSGSGSGTDYTFTISSLQPEDIATYFCQQGDTLPPTFGGGTKLEIKRTVAAPSVFIFPPSDEQLKSGTASVVCLLNNFYPREAKVQWKVDNALQSGNSQESVTEQDSKDSTYSLSSTLTLSKADYEKHKVYACEVTHQGLSSPVTKSFNRGEC | 2.90 | 97.10 | 2.91 | 97.09 | 2.96 | 97.04 | 2.90 | 96.97 | Tetramer ([4]; Freeze-thaw for 3 cycles): 0.13%; Dimer ([4]; Freeze-thaw for 5 cycles): 2.87%; Monomer ([4]; Freeze-thaw for 5 cycles): 97.01%; Tetramer ([4]; Freeze-thaw for 5 cycles): 0.12%; Dimer ([4]; pH 3.5 for 2 h): 2.96%; Monomer ([4]; pH 3.5 for 2 h): 97.04%; Dimer ([4]; pH 3.5 for 4 h): 2.87%; Monomer ([4]; pH 3.5 for 4 h): 97.13%; Dimer ([4]; pH 3.5 for 6 h): 2.94%; Monomer ([4]; pH 3.5 for 6 h): 97.06%

Source: patent US20250295802A1, “HER3 ANTIBODY-DRUG CONJUGATE AND USE THEREOF” (DUALITY BIOLOGICS (SUZHOU) CO., LTD., priority 2022, published 2025)
